Data from patent US20020164690A1 (published 2002).
Several values for one entry are separate records, joined by “and”; a condition that tells them apart may be missing. Equal values may be shown once.

How the values were obtained:
[1] = target: T1, recombinant human IL-13 (CHO; Applicants' own material) (human, UniProt P35225 part only, limits assumed); experiment: Kd inferred from the IC50 of the TF1 cell proliferation bioassay with 15 pM IL-13; not a direct binding assay
T1 construct: also called CHO-derived human IL-13; Applicants' rhIL13

[2] = target: T1, recombinant human IL-13 (CHO; …); experiment: cell-based or functional assay
[3] = target: recombinant human IL-13 (E. coli; Preprotech) (human, UniProt P35225 part only); experiment: cell-based or functional assay

- Kd [1]: ~9 pM
- IC50, TF1 cell proliferation with 15 pM IL-13 (MTS, OD 490 nM) [2]: 16 pM and 17 pM
- IC50, TF1 cell proliferation with 15 pM IL-13 (MTS, OD 490 nM) [3]: 64 pM
B1: IL-4/IL-13 Trap 1132 (Fc fusion)
chain: [not shown - about 200 residues]APTETQPPVTNLSVSVENLATVIWTWNPPEGASSNCSLWYFSHFGDKQDKKIAPETRRSIEVPLNERICLQVGSQCSTNESEKPSILVEKCISPPEGDPESAVTELQCIWHNLSYMKCSWLPGRNTSPDTNYTLYYWHRSLEKIHQCENIFREGQYFGCSFDLTKVKDSSFEQHSVQIMVKDNAGKIKPSFNIVPLTSRVKPDPPHIKNLSFHNDDLYVQWENPQNFISRCLFYEVEVNNSQTETHNVFYVQEAKCENPEFERNVENTSCFMVPGVLPDTLNTVRIRVKTNKLCYEDDKLWSNWSQEMSIGKKRNST
